Measurements as given in PubChem BioAssay AID485344 (National Center for Advancing Translational Sciences (NCATS), 2010).
Hit rate of the full screen: of about 340,000 compounds, about 6,900 (2%) were called active. Cut-off read from the data, not from the text of the source: active = inhibition above about 30%; inactive = below that, where a call was filed. Only a part is listed here, and it is no random draw. Entries without a call were filed so in the source.

biological target: D(2) dopamine receptor (Homo sapiens) (UniProt P14416); assay: HTS Assay for Allosteric Antagonists of the Human D2 Dopamine Receptor: Primary Screen for Antagonists; conditions: HEK293 TREx D2 cells, calcium flux, dopamine EC80; at 10 µM; stronger effect = higher value; note: 0% is about no effect
Procedure, shortened: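 Measurement of antagonist activity uses fluorescent calcium dye in inducible HEK293 T-REx D2 cells: 10 s baseline, compound addition with 180 s read, EC80 dopamine addition with a further 180 s read.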

Chain of UniProt P14416 (P14416 whole entry, looked up): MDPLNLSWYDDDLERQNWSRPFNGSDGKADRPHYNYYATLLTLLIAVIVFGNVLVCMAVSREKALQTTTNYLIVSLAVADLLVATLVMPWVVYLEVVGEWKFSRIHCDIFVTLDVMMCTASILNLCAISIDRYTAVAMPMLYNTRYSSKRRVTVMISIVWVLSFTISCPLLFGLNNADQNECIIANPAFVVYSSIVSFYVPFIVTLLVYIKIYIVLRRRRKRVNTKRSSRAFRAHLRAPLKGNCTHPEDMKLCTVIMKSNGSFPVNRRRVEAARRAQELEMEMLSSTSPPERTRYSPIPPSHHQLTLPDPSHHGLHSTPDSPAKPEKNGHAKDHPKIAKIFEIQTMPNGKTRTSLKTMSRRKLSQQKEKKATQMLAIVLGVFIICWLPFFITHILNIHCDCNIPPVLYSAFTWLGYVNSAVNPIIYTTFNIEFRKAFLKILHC

Compound	inhibition
COc1ccccc1C(=O)Nc1nnc(S(=O)(=O)N(C)c2ccc(Cl)cc2)s1	-5.9%
COc1ccc(Cl)cc1NC(=O)c1ccc2c(c1)CCCN2S(C)(=O)=O	13.4%
Cc1ccc(-n2ncc(C(=O)NCCCN3CCCCC3)c2C2CCN(C(=O)OC(C)(C)C)CC2)cc1	0.663%
COc1cccc(OC)c1C(=O)Nc1ccc(S(=O)(=O)Nc2nccc(C)n2)cc1	-12.9%
CCOC(=O)c1c(C)n(-c2ccccc2)c2ccc(OC(=O)c3ccccc3NC(=O)C(C)(C)C)cc12	9.06%
Cc1ccc(NC(=O)c2c(C)nc3sc(C(=O)Nc4ccc(F)cc4)c(N)c3c2-c2ccccc2Cl)c(C)c1	-4.51%
O=C1CSC(=Nc2cccc([N+](=O)[O-])c2)N1	active: 42.8%
Cc1ccc(N(Cc2cccs2)C(=O)COc2cccc(C)c2)cc1	8.84%
Cc1cccc(CNC(=O)c2cnc3sc(N4CCCCCC4)nn3c2=O)c1	17.5%
COc1ccc(-c2nsc(NC(=O)c3oc4cc(C)c(C)cc4c3C)n2)cc1	-4.59%
CC(=O)c1ccc(NC(=O)Cn2c(=O)n(Cc3ccco3)c(=O)c3sc4ccccc4c32)cc1	3.94%
Cc1nn2c(=O)cc(COC(=O)CNC(=O)c3ccc(F)cc3)nc2s1	-0.154%
COc1ccc(C2=NC(C)(C)N(CC(=O)Nc3ccc(F)c(F)c3)C2=O)cc1	-1.17%
CCN1CCN(c2cc(C)c3cc(NC(=O)c4cc(Cl)ccc4OC)ccc3n2)CC1	-6.37%
CCCc1cnc2c(c1SCc1ccc(C(F)(F)F)cc1)c(=O)n(C)c(=O)n2C	9.16%
CCN1C(=O)C2(c3ccccc31)c1c(oc3ccc(F)cc3c1=O)C(=O)N2CCCOC (stereo not drawn)	4.81%
CC(C)Oc1ccc(CNC(=O)c2ccc(Cn3c(=O)c4cccn4c4cccnc43)cc2)cc1	16.4%
COc1ccccc1N1CCN(C(=O)Cn2ncc3c(=O)oc4ccc(C)cc4c32)CC1	15.9%
C=C(C)c1cccc(C(C)(C)NC(=O)NCc2ccncc2)c1	active: 34.5%
CN(C)S(=O)(=O)c1ccc(C(=O)Nc2ccc(-n3nncc3-c3ccccc3)cc2)cc1	12.9%
COc1ccccc1NS(=O)(=O)c1cc2c(cc1Cl)NC(=O)CO2	-6.02%
O=C1CN(C(=O)Nc2ccccc2C(F)(F)F)C(c2ccccc2)c2c(sc3c2CCCC3)N1 (stereo not drawn)	23%
CCOc1ccc(CCNC(=O)CSc2cc(=O)n(C)c3ccc(Cl)cc23)cc1OCC	-17%
OC1(Cc2cc(-c3ccccc3)no2)CCN(CCCc2ccccc2)CC1	active: 73.1%

Compound	inhibition
COc1ccc(-c2nc(SCC(=O)Nc3ccc4c(c3)OCCO4)c(-c3ccccc3)[nH]2)cc1	20.8%
CCc1ccc(NC(=O)Cn2c(=O)n(-c3cc(C)cc(C)c3)c(=O)c3oc4ccccc4c32)cc1	-0.631%
COC(=O)c1ccccc1NC(=O)C1=C(C)C(=O)OC12CCC(C)CC2 (stereo not drawn)	9.61%
Cc1ccc(CSc2oc(-c3cccs3)nc2S(=O)(=O)c2ccc(C)cc2)cc1	21.6%
COC(=O)CC1Oc2ccc(C)cc2-n2cc(-c3ccc(C)cc3)nc21 (stereo not drawn)	0.729%
CC(C)CC(=O)Nc1nnc(S(=O)(=O)N2CCc3ccccc32)s1	13.4%
Cc1ccc(-n2nc3c(=O)n(CCCC(=O)NC(C)c4ccccc4)nc(C)c3c2C)cc1 (stereo not drawn)	-6.66%
CCOC(=O)/C(C#N)=C/c1ccc(-c2ccc(C)cc2)o1	-1.68%
CCCN(CCC)C(=O)Cn1c(=O)n(Cc2ccc(C(=O)NCCc3ccc(Cl)cc3)cc2)c(=O)c2ccccc21	16.8%
COc1ccccc1Cn1cc(C(=O)c2ccc(C)cc2)c(=O)c2cc(F)cc(F)c21	8.25%
COc1ccc(OC)c(-c2noc(N3CCN(c4cccc(C)c4C)CC3)n2)c1	-8.14%
COc1cccc(CN(C(=O)c2cccc(C)c2)C2CCS(=O)(=O)C2)c1 (stereo not drawn)	0.661%
CC(=O)c1ccc(NC(=O)Cn2nc(C(F)(F)F)c3c2CCCC3)cc1	4.35%
COc1cc2[nH]c(=O)n(Cc3ccc(C(=O)NC4CCN(Cc5ccccc5)CC4)cc3)c(=O)c2cc1OC	active: 90.8%
CCSc1nn(CC(=O)Nc2cccc(Cl)c2)c(N)c1S(=O)(=O)c1ccc(OC)cc1	-5.27%
Cc1ccc2occ(C(=O)c3ccco3)c(=O)c2c1	active: 38.5%
COc1ccc(NC(=O)C(=O)NCc2ccco2)cc1	5.01%
CCN(CCCNC(=O)Cn1ncc2c([nH]c3ccc(C)cc32)c1=O)Cc1ccccc1	3.64%
CC(C)n1c(=N)c(C(=O)NC2CCCCC2)cc2c(=O)n3ccccc3nc21	1.22%
Clc1cccc(CSc2nnc(C3CCNCC3)o2)c1	-8.66%
COc1ccc(OCC(O)CN2CCN(c3ncccn3)CC2)cc1 (stereo not drawn)	active: 62.2%
Cc1ccc(C)c(OCCN2C(=O)NC3(CCc4ccccc4C3)C2=O)c1 (stereo not drawn)	active: 33%
CCc1cccc(NC(=O)Cn2nc3c4cc(F)ccc4n(Cc4cccc(C)c4)cc-3c2=O)c1	5.86%
CC(C)Oc1ccc(C(=O)Nc2nonc2-c2ccc(OC(C)C)cc2)cc1	3.88%

Compound	inhibition
COC(=O)CCN(C(=O)C1CCN(S(=O)(=O)c2c(C)noc2/C=C/c2ccccc2F)CC1)c1ccccc1	10.4%
CCCNC(=O)c1cnc2c(-c3ccc(OCC)c(OCC)c3)c(C)nn2c1-c1ccccc1	-7.92%
COc1cc(NC(=O)CC(c2cccs2)N2Cc3ccccc3C2=O)cc(OC)c1OC (stereo not drawn)	10.4%
CCOC(=O)c1cc(C)n(CC2CCC(C(=O)Nc3cc(OC)cc(OC)c3)CC2)c1C (stereo not drawn)	-4.54%
O=C(Nc1ccc(Cl)c(-c2nc3cc(Cl)ccc3o2)c1)c1cc2ccccc2o1	8.76%
Cc1ccccc1NS(=O)(=O)c1nnc(NC(=O)c2ccco2)s1	13.8%
CC(=O)N1CCN(c2ccc(S(=O)(=O)N3CCCCC3)cn2)CC1	active: 37.7%
CCOC(=O)c1c(S(=O)(=O)NCC(=O)N(C)c2ccc(C)cc2)c(C)n(C)c1C	24.2%
Cc1ccccc1-c1nc(SCC(=O)N(C)c2ccccc2)c2c(=O)n(C)c(=O)n(C)c2n1	-7.42%
COc1ccc(CCC(=O)NCCc2csc(-c3cccc(C)c3)n2)cc1	-1.11%
Cc1ccc(C)c(CN2C(=O)c3ccccc3S(=O)c3ccc(C(=O)NCCC4=CCCCC4)cc32)c1 (stereo not drawn)	12%
CCOc1ccc2cc(-c3nnc(Nc4ccc(C)cc4)s3)c(=O)oc2c1	-3.96%
Cc1ccccc1OCc1ccc(-c2nc(C#N)c(N3CCC(C(N)=O)CC3)o2)o1	22.5%
COc1ccc(/C=C/C(=O)c2ccc(Cl)s2)cc1O	active: 37.2%
CCOc1ccc2c(c1)c(=O)c(S(=O)(=O)c1ccc(Cl)cc1)cn2Cc1ccccc1C	0.0667%
COc1ccc(Cl)cc1NC(=O)CN(C)C(=O)c1cc2c(s1)CCCC2	active: 46.4%
COc1cccc(Nc2nc3ccc(C(=O)c4ccccc4)cc3n3c(C)nnc23)c1	7.13%
CC(=O)c1ccc(N2CCN(C(=O)C3CCN(S(=O)(=O)c4c(C)noc4/C=C/c4ccccc4F)CC3)CC2)cc1	18.2%
Cc1cc(C)c(S(=O)(=O)NCCc2csc3nc(-c4ccc(Cl)cc4)nn23)c(C)c1	7.56%
Cc1ccc(NC(=O)c2sc3ncnc(N(C)C4CCCCC4)c3c2C)cc1	-0.53%
O=c1c2c3c(sc2n(Cc2ccc(F)cc2Cl)c(=O)n1-c1ccc(Cl)cc1)CCC3	-5.09%
Cc1ccc(C)c(N2CCN(c3nc4ccccc4c(=O)n3-c3ccccc3)CC2)c1	14.8%
O=C(O)c1ccccc1S(=O)(=O)Cc1ccccc1	active: 36.4%
CCOc1ccc2nc(N(CCCN(C)C)C(=O)c3ccc(S(=O)(=O)N4CCCC4)cc3)sc2c1	active: 31.5%

Compound	inhibition
COc1cc(NC(=O)CC2C(=O)N(c3cccc(C)c3)C(=O)N2Cc2cccs2)cc(OC)c1 (stereo not drawn)	1.17%
CC(C)Oc1ccc(CNC(=O)Cn2c(-c3cccs3)cc3ccccc32)cc1	-5.64%
Cc1ccc(C(=O)Nc2ccc3[nH]c(=O)c(=O)[nH]c3c2)cc1	-1.31%
Cc1ccc(C2CCN(C(=O)Nc3ccc(C)c(C)c3)C2)cc1 (stereo not drawn)	-8.12%
COc1ccc(S(=O)(=O)NC(C)C(=O)N2CCCC2)cc1C (stereo not drawn)	active: 32.4%
COc1cccc(C(=O)Nc2ccc(S(=O)(=O)N(Cc3ccccc3)c3ccccc3)cc2)c1	-14.7%
CCS(=O)(=O)N1CCc2cc(C(=O)NCCc3ccc(OC)c(OC)c3)ccc21	-17.5%
CCc1ccccc1N(C)S(=O)(=O)c1ccc2c(c1)C(C)(C)C(=O)N2C	-2.14%
Cc1c(C(=O)N(C)C)sc2c1c(=O)n(-c1ccc(F)cc1)c(=O)n2Cc1ccccc1C#N	-9.68%
COc1cccc(NC(=O)c2csnn2)c1	-2.66%
CC(=O)N1CCc2cc(CNC(=O)Nc3ccc(Br)c(C)c3)ccc21	-18.7%
Fc1ccc2c(c1)-c1c(cnc3cc(-c4ccc(Cl)cc4)nn13)CO2	-2.42%
C=Cc1ccc(Cn2ccn(-c3ccc(F)c(F)c3)c(=O)c2=O)cc1	21.7%
CC(C)CN(C(=O)c1cccc(S(=O)(=O)N2CCN(c3ccc(F)cc3)CC2)c1)C1CCS(=O)(=O)C1 (stereo not drawn)	active: 34.6%
COc1ccc(CCN2C(=O)c3[nH]nc(-c4ccccc4O)c3C2c2ccccc2)cc1 (stereo not drawn)	8.8%
CCOc1ccc(-c2cc3nc(C4CCN(C(=O)OC(C)(C)C)CC4)c(C(=O)Nc4c(C)cccc4C)cn3n2)cc1	21.6%
Cc1cc(C)c(Cn2c(=O)n(CCCCC(=O)NCc3ccccc3Cl)c(=O)c3ccccc32)c(C)c1	-10.8%
CCC(=O)Nc1ccccc1-c1nc2ccccc2n(C(CC)C(=O)Nc2cccc(Cl)c2)c1=O (stereo not drawn)	2.06%
COc1ccc(NC(=O)C2=C(C)Nc3ncnn3C2c2ccc[nH]2)cc1 (stereo not drawn)	-5.59%
Cc1cc(NC(=O)Cn2c(=O)oc3cc(S(=O)(=O)N4CCCC4)ccc32)ccc1Br	-21%
COc1ccc(CCNC(=O)C2CCCN(S(=O)(=O)c3ccc4c(c3)oc(=O)n4C)C2)cc1OC (stereo not drawn)	6.06%
